Data taken from PubChem BioAssay AID1347417 (National Center for Advancing Translational Sciences (NCATS), 2020).
About 5,300 (4.4%) of roughly 120,000 compounds were called active. The inconclusive results got no clear call from the source; some entries with a clear call stand among them for comparison. Calls come from the whole dose curve; as a rule, active = well fitted inhibition curve with a large enough effect; inconclusive = small, poorly fitted or top-dose-only effect; inactive = no such curve, though single readings can be large or run the other way. Potencies of inconclusive entries are doubtful fits and often do not repeat.

experiment: qHTS Primary assay for Inhibitors of Plasmodium falciparum Dd2 growth in vitro; note: nearly all actives have a fitted effect of over 65% in size; conditions: P. falciparum Dd2 growth, SYBR Green, 72 h; series mostly up to 28.9 µM
Summary of the method: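 Readout: SYBR Green fluorescence, 485 nm excitation, 535 nm emission, after ~16 h lysis at 37C. Before that, Dd2-infected red cells (2.5% hematocrit) grew 72 h with compound, 29 uM top final concentration.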
Potency is the fitted concentration of half-maximal effect; tags give direction and shape of the fitted curve.

SMILES	Potency
COc1ccc(-c2cn3c(n2)N(C(=O)c2cccs2)CCC3)cc1	inconclusive: 2.51 µM [inhibitor, full curve]
CC1=C(C(=O)Nc2cccc(C(F)(F)F)c2)C2(CCCCCC2)OC1=O	inconclusive: 14.1 µM [inhibitor, partial curve, poor fit]
CCOc1ccccc1NC(=O)CC1CCCN(c2cnn(CCOC)c(=O)c2)C1 (configuration not stated)	inconclusive: 17.8 µM [inhibitor, single point]
O=C1NCCOCCN(S(=O)(=O)c2ccc3c(c2)CCC3)[C@H]2CCC[C@@H]12	inconclusive: 3.98 µM [inhibitor, single point]
CSCc1noc(CNC(=O)CC(c2ccccc2)c2ccccc2Cl)n1 (configuration not stated)	inactive
C[C@@H]1CN(C(=O)c2ccc(-c3cnco3)cc2)CC[C@]1(C)O	inactive
O=C(Cn1c(=O)n(Cc2ccc(C(=O)NCc3ccc4c(c3)OCO4)cc2)c(=O)c2ccccc21)Nc1cccc(Cl)c1	inconclusive: 1 µM [inhibitor, full curve, poor fit]
COc1ncccc1Nc1cnc2ccc(-c3ccc(F)cc3)nn12	inconclusive: 2.51 µM [inhibitor, partial curve, poor fit]
Clc1ccccc1C1Cn2nnc(-c3noc(-c4cc(C5CC5)[nH]n4)n3)c2CO1 (configuration not stated)	inconclusive: 1 µM [inhibitor, partial curve]
Cc1ccc2c(c1)sc1nc(-c3cc4cc(Cl)ccc4oc3=O)cn12	inactive
COc1ccc(-c2noc([C@@H]3CCCN3C(=O)C3CCN(C(=O)c4ccccc4)CC3)n2)cc1	inconclusive: 17.8 µM [inhibitor, single point]
N#Cc1cccc(C(=O)NC2CCc3n[nH]c(=O)n3CC2)c1 (configuration not stated)	inactive
COc1ccc(C(=O)N2CC[C@@](O)(C3CCOCC3)[C@H](C)C2)o1	inactive
Cn1c(C(=O)N2CCN(c3ccccc3)CC2)cc2c1CCN(Cc1cccc(F)c1)C2	inconclusive: 3.98 µM [inhibitor, single point]
Cc1n[nH]c(C)c1CCNC(=O)c1ccccc1OC1CCN(Cc2ccccn2)CC1	inconclusive: 8.91 µM [inhibitor, partial curve]
Cc1oc(-c2cccc(Oc3ccccc3)c2)nc1CN(C)CCCO	inconclusive: 11.2 µM [inhibitor, partial curve]
O=C1NC2(CCCN(Cc3ccccn3)C2)Oc2ccccc21 (configuration not stated)	inconclusive: 14.1 µM [inhibitor, partial curve, poor fit]
CCC1=C(C(=O)OC)C(c2ccccc2Cl)N2C(CC(=O)N(C)Cc3ccccc3)=CSC2=N1 (configuration not stated)	inactive
O=C(CCc1nnn2c1CN(C(=O)c1cccc3[nH]ccc13)CC2)N1CCCC1	inconclusive: 17.8 µM [inhibitor, single point]
CN(C)c1ccc(-c2nc(-c3nnn4c3COC(c3ccccc3Cl)C4)no2)cc1 (configuration not stated)	inactive
Cc1ccc(CN2CCc3nc(C(C)C)nc(-c4ccc(O)cc4)c3C2)cc1	inconclusive: 2.82 µM [inhibitor, single point]

SMILES	Potency
CC(=O)c1cccc(NC(=O)Cn2c(N3CCCCC3)nc(C)c(C)c2=O)c1	inconclusive: 10 µM [inhibitor, partial curve]
Cn1cc(-c2cnc(Nc3ccc(N4CCOCC4)cc3)c3c2CCO3)cn1	inconclusive: 31.6 µM [inhibitor, single point]
Cc1cc(C(=O)N2CCN(c3cc(Cl)ccc3C)CC2)c2c(C)nn(-c3ccccc3)c2n1	inconclusive: 11.2 µM [inhibitor, partial curve, poor fit]
CN(C)c1cccc(-c2cnc(Nc3cncnc3)c3c2CCO3)c1	inconclusive: 10 µM [inhibitor, single point]
O=C(NCCc1noc(-c2ccncc2)n1)C1CCOC1 (configuration not stated)	inconclusive: 17.8 µM [inhibitor, single point]
Cc1noc(C)c1S(=O)(=O)N1CCCC2(C1)Nc1cccnc1NC2=NC1CCCC1 (configuration not stated)	inconclusive: 3.16 µM [inhibitor, single point]
CCc1noc(-c2cccn3c(CNC(=O)c4ccccc4OC)nnc23)n1	inconclusive: 2.51 µM [inhibitor, single point]
CN1CCN(c2cnn(CCC(N)=O)c(=O)c2)CC1	inactive
Cc1ccc(CN2CCC3(CC2)CNc2ccccc2[S+](=O)([O-])N3)cc1	inconclusive: 1.26 µM [inhibitor, partial curve, poor fit]
COc1ccc(-c2nc(-c3ccccc3)nc3c2CN(C(=O)N(C)C)CC3)cc1	inconclusive: 8.91 µM [inhibitor, partial curve, poor fit]
O=C1NC(C(=O)NCc2ccc(OC(F)(F)F)cc2)Cn2cccc21 (configuration not stated)	inactive
Cc1oc2ccn(Cc3cccc(F)c3)c(=O)c2c1C(=O)NC(C)c1ccccn1 (configuration not stated)	inconclusive: 3.98 µM [inhibitor, single point]
COCCC(=O)N1CCCN(C(=O)C2CC2)c2ccccc21	inactive
O=C(NC1CC1)c1ccccc1OCC1CCCN(C2CCCCC2)C1 (configuration not stated)	inconclusive: 3.98 µM [inhibitor, single point]
O=c1c2c(n(CCOc3ccccc3)n1-c1ccccc1)CN(Cc1nccs1)CC2	inconclusive: 31.6 µM [inhibitor, single point]
CC(C)NS(=O)(=O)c1ccc2c(c1)nc(CCC(N)=O)n2C(C)C	inactive
Cc1cc(C)n(CCCNC(=O)c2cccc(C3CCNC3)c2)n1 (configuration not stated)	inactive
CCOC(=O)C1CCN(C(=O)Cn2ncc3c4ccccc4n(Cc4ccccc4)c3c2=O)CC1	inconclusive: 8.91 µM [inhibitor, partial curve, poor fit]
O=C(c1c(OCC2CC2)cc(=O)n2c1CCOCC2)N1CCN(c2ncccn2)CC1	inactive
O=C1NC2(CCCN(C(=O)c3ccccc3)C2)COc2ccccc21 (configuration not stated)	inconclusive: 17.8 µM [inhibitor, single point]
Cc1ccc(N2C(=O)CCSC23C(=O)N(Cc2ccc(F)cc2)c2ccccc23)cc1 (configuration not stated)	inconclusive: 5.01 µM [inhibitor, partial curve, poor fit]
